Results taken from PubChem BioAssay AID1508623 (National Center for Advancing Translational Sciences (NCATS), 2021).
Hit rate of the full screen: of about 48,000 compounds, about 450 (0.94%) were called active. Not shown: some 19% with an inconclusive outcome. The call rests on the fitted dose curve; in most records, active means well fitted inhibition curve with a large enough effect; inconclusive means small, poorly fitted or top-dose-only effect; inactive means no such curve, though single readings can be large or run the other way. The list shows a part of the results.

experiment: Primary qHTS for Identification of Small Molecule Inhibitors of Huntingtin Promoter Activity; conditions: HEK293 HTT promoter firefly luciferase reporter (activity 0% = vehicle and -100% = no light), 24 h; series mostly up to 57.5 µM; activity change, negative = inhibition: at the top concentration; further: nearly all actives have a fitted effect of over 50% in size
In short: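 Luminescence was read after Dual-Glo reagent and a 10 min room-temperature incubation. Values were normalized to vehicle (0% activity) and zero RLU (-100% activity). Reporter HEK293 cells had been exposed to compounds (up to 57.5 uM final) for 24 h.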
Potency means the concentration at half of the fitted maximal effect.

SMILES	activity change, negative = inhibition	Potency
CCCCCn1c(=N)c(S(=O)(=O)c2ccc(C)cc2)cc2c(=O)n3cc(C)ccc3nc21	inactive: 5.39%	–
CC(C)(CC(=O)NCc1ccc(Cl)cc1Cl)CC1=NS(=O)(=O)c2ccccc2N1	–	active: 20 µM
COC(=O)c1ccc(NS(=O)(=O)c2ccc3c(c2)n(C)c(=O)c(=O)n3C)cc1	inactive: -4.52%	–
Cn1c2c(c(=O)n(C)c1=O)C(c1ccccc1C(F)(F)F)CC(=O)N2 (stereo not given)	inactive: -13.9%	–
CCOC(=O)c1ccc(CN(Cc2ccc(F)cc2)S(=O)(=O)c2ccc(F)c(C(=O)Nc3ccccc3C(F)(F)F)c2)cc1	inactive: -23.4%	–
CCNC(=O)CC1C(=O)N(c2ccc(F)cc2)C(=O)N1Cc1ccc(OC)c(OC)c1 (stereo not given)	inactive: -7.55%	–
CCc1ccccc1N(CC)C(=O)C(=O)Nc1ccc2nc3n(c(=O)c2c1)CCCCC3	inactive: -10.2%	–
O=S(=O)(c1ccc2ccccc2c1)n1nc(-c2ccco2)nc1NCc1ccc(F)cc1	inactive: -3.58%	–
Cc1cc(C)cc(C(=O)N(Cc2nc(-c3ccc(Cl)cc3)no2)C(C)C)c1	inactive: -13.9%	–
COCCNC(=O)C(=O)NCC(c1ccc2c(c1)OCO2)N1CCOCC1 (stereo not given)	inactive: -7.55%	–
COC(=O)c1ccc(OCC(O)Cn2cnc3cc(C)c(C)cc32)cc1 (stereo not given)	inactive: -11.7%	–
Cc1ccc(C(=O)Nc2ccc(-c3nc4ccccc4s3)c(O)c2)c(C)c1	inactive: 54.5%	–
COCCCNC(=O)c1c(NC(=O)c2nc(S(C)(=O)=O)ncc2Cl)sc2c1CCCC2	inactive: -2.74%	–
CCCCN(C)CCNC(=O)c1cc(=O)[nH]c2ccc(S(=O)(=O)N3CCCCCC3)cc12	inactive: -12%	–
Cc1cc(NC(=O)c2ccc(-c3ccc(Cl)cc3)o2)cc(-c2nc3ncccc3o2)c1O	inactive: -9.1%	–
Cc1ccc(CNC(=O)c2cnc(N(C)C)nc2)cc1	inactive: -4.3%	–
Cc1ccc(NC(=O)c2ncn(-c3ccccc3)n2)cc1Cl	inactive: 52.2%	–
COc1ccc(NC(=O)c2oc3ccccc3c2NC(=O)c2cc(=O)c3c(C)cc(C)cc3o2)cc1	inactive: 21.3%	–
Cc1nc(-n2nc(C)c(Cc3ccccc3Cl)c2C)sc1C(=O)N1CCCCC1C (stereo not given)	inactive: -5.65%	–
COc1ccc(-c2nc(C(=O)Nc3cccc(C(C)=O)c3)nn2-c2ccc(Cl)cc2)cc1	inactive: -4.2%	–
Cc1ccc(NC(=O)CS(=O)(=O)c2nc(-c3ccc(C)cc3)cn2-c2ccc(C)cc2)cc1	inactive: -13.6%	–
NC(=O)[C@@H]1CSSCCC(=O)N[C@@H](CCCCN=C(N)N)C(=O)NCC(=O)N[C@@H](CC(=O)O)C(=O)N[C@@H](Cc2c[nH]c3ccccc23)C(=O)N2CCC[C@H]2C(=O)N1	inactive: 1.01%	–
CCOc1ccccc1NC(=O)CC1C(=O)NCCN1C(=O)c1ccc(F)cc1 (stereo not given)	inactive: -6.08%	–
COc1ccc(OC)c(Nc2nc3ccccc3n3c(C)nnc23)c1	inactive: 0.572%	–

SMILES	activity change, negative = inhibition	Potency
O=C(Nc1cc(-c2nc3cc(Cl)ccc3o2)ccc1Cl)c1cccs1	inactive: -6.71%	–
C#CC(C)(CC)NC(=O)Cn1nnc(-c2ccc(OCc3ccccc3F)cc2)n1 (stereo not given)	inactive: -3.75%	–
COCCCNC(=O)c1cc2n(n1)CCCN(Cc1ccc(C)cc1)C2=O	inactive: -0.791%	–
CC(=O)SC[C@@H](C)C(=O)N1CCC[C@H]1C(=O)N[C@@H](Cc1ccccc1)C(=O)O	inactive: -1.49%	–
CC[C@H](C)[C@H](N)C(=O)O	inactive: 10.6%	–
COc1ccc(OC)c(NC(=O)c2cc3c(s2)-c2ccccc2SC3)c1	inactive: -6.34%	–
COc1ccccc1-c1c(C)nn2c(N3CCN(c4cccc(Cl)c4)CC3)cc(C)nc12	inactive: -13%	–
Cc1c(NS(=O)(=O)c2cccc(C(=O)O)c2)c(=O)n(-c2ccccc2)n1C	inactive: 2.9%	–
O=C(CSc1nnc(CNC(=O)c2c(F)cccc2Cl)o1)Nc1ccccc1F	inactive: -5.23%	–
CCC(=O)N1c2ccccc2CC1C(=O)NCc1ccccc1C (stereo not given)	inactive: 0%	–
CS(=O)(=O)c1ncc(N(Cc2ccco2)Cc2ccco2)c(C(=O)Nc2ccccc2Br)n1	inactive: -16%	–
CNc1nc(Oc2ccc(=O)n(C)n2)nc(N2CCOCC2)n1	inactive: 2.63%	–
Cn1c(SCC(=O)N2CCCc3ccccc32)ncc(C(=O)Nc2ccc(Cl)cc2)c1=O	inactive: -10.1%	–
CCc1nc2nc(C)cc(Nc3ccc(OC)cc3)n2n1	inactive: -23%	–
CN(C1CCCCC1)S(=O)(=O)c1ccc2c(c1)c(=O)c(C(=O)NCCc1ccc(Cl)cc1)cn2C	inactive: -6.19%	–
CSCCC(NS(=O)(=O)c1ccc2c(c1)oc(=O)n2C)C(=O)NCCc1ccc(C)cc1 (stereo not given)	inactive: -10.3%	–
CCS(=O)(=O)N1CCC(C(=O)NCCC(C)C)CC1	inactive: -15.6%	–
COc1cccc(OCCCCn2c(-c3ccc(Cl)cc3)nc3ccccc3c2=O)c1	inactive: -7.64%	–
O=S(=O)(NCCSc1nnnn1-c1ccccc1)c1ccc(F)cc1	inactive: -18.1%	–
Cc1ccc(-c2onc(C)c2C)cc1S(=O)(=O)NCc1ccco1	inactive: -18.8%	–
O=c1[nH]cnc2nc[nH]c12	inactive: 20.2%	–
CC(=O)Nc1ccc(S(=O)(=O)NC2(C(F)(F)F)NC(=O)N(c3ccc(C)cc3)C2=O)cc1 (stereo not given)	inactive: -1.13%	–
O=C(c1cccc([N+](=O)[O-])c1)N1c2ncnn2C2(CCCCC2)[C@@H]2CCCC[C@@H]21	inactive: -35.5%	–
Cc1ccc(S(=O)(=O)c2cnc(SCC(=O)Nc3ccc4c(c3)OCCO4)[nH]c2=O)cc1	inactive: -5%	–

SMILES	activity change, negative = inhibition	Potency
Cc1cccc(OCc2ccc(-c3nc(C#N)c(NCCN(C)C)o3)o2)c1	inactive: -4.1%	–
Cc1cc(Nc2ccc(C)c(C)c2)n2cnnc2n1	inactive: 5.5%	–
COc1ccc2c(c1)c1c(c(=O)n(-c3ccccc3C)c(=O)n1CC(=O)NCc1ccc(C)cc1)n2C	inactive: -27.9%	–
CCOC(=O)c1c(C)oc2nc(C)nc(NCc3ccccc3Cl)c12	inactive: 7.82%	–
Cc1ccc2cccc(NC(=O)COc3ccccc3[N+](=O)[O-])c2n1	inactive: -7.17%	–
CCN(CC)c1ccc(NC(=O)CSc2nnc(C)c(=O)[nH]2)cc1	inactive: -18.4%	–
CCCN(CCC)C(=O)CSc1nnc2cc(C)c3cc(C)cc(C)c3n12	inactive: -8.1%	–
CCOC(=O)c1c(NC(=O)COc2ccccc2F)sc2c1CCCC2	inactive: 0%	–
COC(=O)c1c(-c2cccs2)csc1NC(=O)c1ccc(Cl)cc1	inactive: 57.6%	–
CCc1ccc(N(CC)C(=O)c2ccc3c(=O)n4c(nc3c2)CCCCC4)cc1	inactive: -26.1%	–
COc1ccccc1Nc1nn2c(=O)c3ccc(C(=O)NCc4cccs4)cc3nc2s1	inactive: -32.1%	–
COc1ccc(-c2cn3c(n2)sc2cc(C(=O)NCc4ccccc4OC)ccc23)cc1	inactive: 6.55%	–
COC(=O)c1cc(S(=O)(=O)NCC2CCN(Cc3cc(C)ccc3C)CC2)c[nH]1	inactive: -18.5%	–
COc1cccc(Cn2c(CNC(=O)C(C)C)nc3cccnc32)c1	inactive: 6.93%	–
Cc1ccc2c(=O)c(C(=O)c3ccc(F)cc3)cn(CC(=O)NCc3ccccc3)c2n1	inactive: 6.15%	–
COc1ccc(N2CCN(C(=O)c3ccc(C)c(NC(=O)c4nsc5ccccc45)c3)CC2)cc1	inactive: 15.5%	–
COc1ccc(OC)c(S(=O)(=O)NCCc2sc(-c3ccc(C)cc3)nc2C)c1	inactive: -29.7%	–
CCOC(=O)c1c(NC(=O)/C=C/c2ccccc2)sc2c1CCCC2	inactive: -3.83%	–
COc1ccc(C(=O)Nc2ccc(-c3nc4ncccc4o3)cc2)cc1	inactive: 23.4% [at 11.5 µM]	–
CC(C)(C)OC(=O)N1CCC(c2c(C(=O)NCc3ccccn3)cnn2-c2ccccc2)CC1	inactive: -6.94%	–
COc1cccc(CNC(=O)c2ccc(Cn3c(SCc4ccccc4)nc4cccnc43)cc2)c1	inactive: -27.6%	–
CN1[C@@H]2CCC[C@@H]1CC(NC(=O)c1nn(C)c3ccccc13)C2 (stereo not given in full)	inactive: -5.67%	–
COc1cc(Cl)ccc1Nc1ncc(C(=O)N2CCN(c3ccccc3OC)CC2)c2ccccc12	inactive: -6.03%	–
O=C(CSc1nc(-c2ccccc2)nc2c1CCCC2)c1ccc(F)cc1	inactive: -11.5%	–

SMILES	activity change, negative = inhibition	Potency
COc1cc(NC(=O)CCc2c(C)nc3nc(-c4cc(OC)cc(OC)c4)nn3c2C)cc(OC)c1	inactive: -11.8%	–
CCCCN(CC)CCNC(=O)c1cc2c(-c3ccc(Cl)cc3)nn(C)c2s1	inactive: -3.52%	–
Cc1nc2ccccc2n1CC(O)COc1ccc(C(=O)O)cc1 (stereo not given)	inactive: -7.4%	–
CCn1c(C(=O)N2CCC(C(=O)NCCc3ccccc3)CC2)cc2sccc21	inactive: -12.4%	–
Cc1ccc(NS(=O)(=O)c2ccc(NC(=O)N3CCCC3)cc2)cc1C	inactive: -19.3%	–
Cc1ccc(-n2c3nc(=O)n(C)c(=O)c-3cc3c(Cl)cccc32)c(C)c1	inactive: -7.83%	–
COc1ccc(N2CC(NC(=O)c3ccc(S(=O)(=O)N4CCCC4)cc3)CC2=O)cc1 (stereo not given)	inactive: -14.6%	–
COc1ccc(-n2nc(C(=O)N3CCN(c4ccccc4OC)CC3)c3c4ccccc4n(C)c3c2=O)cc1	inactive: -9.2%	–
CCOC(=O)c1ccc(NC(=O)C(CC)Sc2nc3ncccc3[nH]2)cc1 (stereo not given)	inactive: -18%	–
COc1cccc(N2CC(NC(=O)/C=C\c3ccc4c(c3)OCO4)CC2=O)c1 (stereo not given)	inactive: -25.1%	–
CCc1ccccc1NC(=O)CN1C(=O)CCc2cc(S(=O)(=O)N3CCCCC3)ccc21	inactive: -24.4%	–
Cc1ccc(CNC(=O)c2ccc(CSCc3ccc(Cl)cc3)o2)cc1	inactive: -21%	–
Nc1ncnc2c1ncn2[C@@H]1O[C@H](CO)[C@@H](O)[C@@H]1O	inactive: 0.234%	–
CCOc1ccccc1C(=O)Nc1c(NC)c2ccccc2oc1=O	inactive: -5.66%	–
O=C(NCc1cccc(F)c1)C1=Cc2cc(Br)ccc2OC1	inactive: -16.1%	–
O=C(Nc1cc(C(F)(F)F)ccc1Cl)c1cc2nc(-c3ccc4c(c3)OCO4)cc(C(F)(F)F)n2n1	inactive: 0.597% [at 11.5 µM]	–
Cn1c(=O)oc2cc(S(=O)(=O)N3CCCC(C(=O)Nc4ccc(Br)cc4F)C3)ccc21 (stereo not given)	inactive: -17.1%	–
COc1ccc(N(CC(=O)NCc2ccc(F)cc2)S(=O)(=O)c2c(C)n[nH]c2C)cc1	inactive: -4.83%	–
COc1ccc(OCCCn2c(=O)oc3ccc(C)cc32)cc1	inactive: -15.2%	–
O=C(CSc1nc2c(oc3ccccc32)c(=O)n1Cc1ccco1)Nc1cccc(Cl)c1	inactive: -7%	–
Cc1cn(C)c(CC(=O)Nc2cccc(Cl)c2C)c1C(=O)O	inactive: -6.29%	–
Cc1cc(C)cc(NC(=O)CN2C(=O)c3ccccc3Sc3ccc(C(=O)N4CCOCC4)cc32)c1	inactive: -19.9%	–
COc1cc2c(cc1NS(=O)(=O)c1cccc(C#N)c1)n(C)c(=O)n2C	inactive: -13.4%	–
